# The other results are listed elsewhere or left out. Repeats are few or missing, and single values can be far off.
# How the values were obtained:
# Assay in all cases: cell count relative to DMSO control; melanoma cells; higher = more viable cells
# Details in all cases: library dose: standard library concentration; 72 h
# G361 = tested on: G361
# IPC-298 = tested on: IPC-298
# IST-MEL1 = tested on: IST-MEL1
# LB2518-MEL = tested on: LB2518-MEL
# LOXIMVI = tested on: LOXIMVI
# MEL-HO = tested on: MEL-HO
# MZ2-MEL = tested on: MZ2-MEL
# MeWo = tested on: MeWo
# RPMI7951 = tested on: RPMI7951
# RVH-421 = tested on: RVH-421
# SkMel28 = tested on: SkMel28
# SkMel2 = tested on: SkMel2
# SkMel30 = tested on: SkMel30
# SkMel5 = tested on: SkMel5
# UACC257 = tested on: UACC257
# UACC62 = tested on: UACC62
# WM115 = tested on: WM115
# WM1716 = tested on: WM1716
# WM3526 = tested on: WM3526
# 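Also: cells treated in 1,536-well plates, then fixed and DAPI-stained, with nuclei counted from automated high-throughput microscope images.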
SMILES,cell count (G361),cell count (IPC-298),cell count (IST-MEL1),cell count (LB2518-MEL),cell count (LOXIMVI),cell count (MEL-HO),cell count (MZ2-MEL),cell count (MeWo),cell count (RPMI7951),cell count (RVH-421),cell count (SkMel28),cell count (SkMel2),cell count (SkMel30),cell count (SkMel5),cell count (UACC257),cell count (UACC62),cell count (WM115),cell count (WM1716),cell count (WM3526)
"Nc1nc(F)nc2c1ncn2[C@@H]1O[C@H](CO)[C@@H](O)[C@@H]1O [fludarabine] + O=C(Oc1ccc([N+](=O)[O-])cc1)N1CCC(C(O)(c2ccc3c(c2)OCO3)c2ccc3c(c2)OCO3)CC1 [JZL184] (first compound 1 µM, partner dose 5 µM)",86%,76.7%,77.6%,101%,95.9%,75.2%,110%,85.8%,71.9%,81%,1.86%,2.52%,14.9%,15.9%,33.2%,97.9%,101%,84.1%,26.8%
"CCCCCCCCc1ccc(CCC(N)(CO)CO)cc1 [fingolimod] + C/C(O)=C(\C#N)C(=O)Nc1cc(Br)ccc1Br [LFM-A13] (first compound 10 µM, partner dose 10 µM)",1.29%,77.7%,7.58%,0.209%,23.5%,5.44%,7.95%,32.7%,2.74%,12.5%,0.633%,0.66%,11.3%,73.4%,62.8%,6.39%,18.4%,7.98%,32.3%
"C[C@]1(O)C[C@@H](c2nc(-c3ccc4ccc(-c5ccccc5)nc4c3)c3c(N)nccn32)C1 + C/C(O)=C(\C#N)C(=O)Nc1cc(Br)ccc1Br [LFM-A13] (first compound 2 µM, partner dose 10 µM)",76.1%,74.9%,82.3%,73.3%,77.5%,78.7%,76.7%,62.5%,67.4%,89.6%,60.5%,66.1%,74.1%,67.2%,90.8%,53.6%,79.2%,104%,62.7%
"CS(=O)(=O)c1ccc(C(=O)Nc2ccc(Cl)c(-c3ccccn3)c2)c(Cl)c1 [vismodegib] + Cc1cc(SCc2sc(-c3ccc(C(F)(F)F)c(F)c3)nc2C)ccc1OCC(=O)O [GW0742] (first compound 5 µM, partner dose 10 µM)",93.8%,108%,92.6%,88%,103%,94.5%,109%,105%,126%,109%,75.5%,99.6%,104%,90.8%,109%,86.8%,100%,101%,136%
"CN(c1ncccc1CNc1nc(Nc2ccc3c(c2)CC(=O)N3)ncc1C(F)(F)F)S(C)(=O)=O + Cc1cc(SCc2sc(-c3ccc(C(F)(F)F)c(F)c3)nc2C)ccc1OCC(=O)O [GW0742] (first compound 0.4 µM, partner dose 10 µM)",87.8%,89.3%,92.2%,86.2%,85%,96.5%,82%,86.2%,64.9%,77.8%,54.2%,77.3%,87.2%,74.3%,71.3%,84.8%,82.1%,85%,93.5%
"CC1(C)CCC(c2ccc(Cl)cc2)=C(CN2CCN(c3ccc(C(=O)NS(=O)(=O)c4ccc(N[C@H](CCN5CCOCC5)CSc5ccccc5)c(S(=O)(=O)C(F)(F)F)c4)cc3)CC2)C1 + Cc1cc(SCc2sc(-c3ccc(C(F)(F)F)c(F)c3)nc2C)ccc1OCC(=O)O [GW0742] (first compound 2 µM, partner dose 10 µM)",72.1%,85.7%,74.3%,74.8%,39.8%,57.9%,88.1%,75.2%,43.9%,61.5%,79.3%,70.1%,76.6%,63.5%,34%,78.5%,80.7%,62.4%,78%
"C=CCNC1=C2C[C@@H](C)C[C@H](OC)[C@H](O)[C@@H](C)/C=C(\C)[C@H](OC(N)=O)[C@@H](OC)/C=C\C=C(/C)C(=O)NC(=CC1=O)C2=O [Tanespimycin] + Cc1cc(SCc2sc(-c3ccc(C(F)(F)F)c(F)c3)nc2C)ccc1OCC(=O)O [GW0742] (first compound 0.01 µM, partner dose 10 µM)",89.9%,97.3%,96.4%,93.8%,67.7%,88.3%,97.5%,79.7%,68.1%,98.6%,94.9%,113%,108%,91.1%,103%,93.2%,57.6%,78.6%,77.1%
"Cc1ccc(Nc2nccc(N(C)c3ccc4c(C)n(C)nc4c3)n2)cc1S(N)(=O)=O [Pazopanib] + C/C(O)=C(\C#N)C(=O)Nc1cc(Br)ccc1Br [LFM-A13] (first compound 2 µM, partner dose 10 µM)",97.8%,92.7%,100%,102%,90.4%,104%,93.4%,77.6%,74.8%,112%,85.3%,104%,105%,62.6%,88.1%,57.9%,98.6%,74.9%,86.6%
"CC(=O)O[C@@]12CO[C@@H]1C[C@H](O)[C@@]1(C)C(=O)[C@H](O)C3=C(C)[C@@H](OC(=O)[C@H](O)[C@@H](NC(=O)OC(C)(C)C)c4ccccc4)C[C@@](O)([C@@H](OC(=O)c4ccccc4)[C@H]21)C3(C)C [Docetaxel] + C/C(O)=C(\C#N)C(=O)Nc1cc(Br)ccc1Br [LFM-A13] (first compound 0.0005 µM, partner dose 10 µM)",21.1%,48%,47.2%,43.9%,79.9%,51.5%,49%,26.4%,35.2%,71.4%,26.6%,26.4%,52.5%,34.4%,61.8%,65.9%,35.6%,44%,55%
"O=C(Nc1cc(C(F)(F)F)cc(C(F)(F)F)c1)c1cc(Cl)ccc1O + Cc1cc(SCc2sc(-c3ccc(C(F)(F)F)c(F)c3)nc2C)ccc1OCC(=O)O [GW0742] (first compound 0.08 µM, partner dose 10 µM)",88.7%,90.3%,94.5%,115%,68.1%,87.8%,93.8%,96.8%,113%,22.4%,88.5%,110%,106%,82.9%,94.7%,99.8%,112%,118%,116%
"CCN(CC)CCNC(=O)c1c(C)[nH]c(/C=C2\C(=O)Nc3ccc(F)cc32)c1C [sunitinib] + C/C(O)=C(\C#N)C(=O)Nc1cc(Br)ccc1Br [LFM-A13] (first compound 2 µM, partner dose 10 µM)",103%,77.9%,96.5%,83.9%,105%,107%,86.8%,67.9%,71.7%,118%,76.4%,86.1%,57%,54.3%,89.6%,74.4%,55.6%,85.1%,52.7%
"Cn1sc(=O)n(Cc2ccccc2)c1=O + C/C(O)=C(\C#N)C(=O)Nc1cc(Br)ccc1Br [LFM-A13] (first compound 2 µM, partner dose 10 µM)",98.6%,94.7%,100%,111%,74.3%,92.8%,94.1%,95.2%,84.2%,92.7%,74%,104%,91.8%,76.9%,97%,88%,106%,103%,97.2%
"CCCCCCCCCCCCCCCCCCOP(=O)([O-])OC1CC[N+](C)(C)CC1 [Perifosine] + O=C(Oc1ccc([N+](=O)[O-])cc1)N1CCC(C(O)(c2ccc3c(c2)OCO3)c2ccc3c(c2)OCO3)CC1 [JZL184] (first compound 2 µM, partner dose 5 µM)",110%,121%,93.7%,156%,110%,109%,113%,100%,31.5%,109%,117%,93.9%,93%,115%,121%,103%,100%,88.1%,74.6%
"Cn1cnc2c(F)c(Nc3ccc(Br)cc3Cl)c(C(=O)NOCCO)cc21 [selumetinib] + C/C(O)=C(\C#N)C(=O)Nc1cc(Br)ccc1Br [LFM-A13] (first compound 0.075 µM, partner dose 10 µM)",69%,58.3%,85.3%,54.6%,96.2%,79.2%,87.5%,83.2%,106%,79.9%,44.8%,61.6%,67.1%,75.4%,100%,48.9%,86.8%,80.2%,52.7%
"O=C(/C=C/c1cccnc1)NCCCCC1CCN(C(=O)c2ccccc2)CC1 + C/C(O)=C(\C#N)C(=O)Nc1cc(Br)ccc1Br [LFM-A13] (first compound 0.05 µM, partner dose 10 µM)",3.75%,33.7%,46.3%,61.9%,65.4%,43.3%,33.6%,92.4%,103%,50.2%,67%,26.1%,92.2%,90.5%,88.4%,73%,98.4%,85.2%,76.2%
"C=C(c1ccc(C(=O)O)cc1)c1cc2c(cc1C)C(C)(C)CCC2(C)C [Bexarotene] + C/C(O)=C(\C#N)C(=O)Nc1cc(Br)ccc1Br [LFM-A13] (first compound 10 µM, partner dose 10 µM)",96.9%,90.5%,84.8%,107%,108%,77.8%,93.2%,97.7%,57.4%,86.9%,76.2%,106%,101%,101%,85.5%,69.4%,115%,84.8%,83.9%
"CC(=O)c1c(C)c2cnc(Nc3ccc(N4CCNCC4)cn3)nc2n(C2CCCC2)c1=O [palbociclib] + Cc1cc(SCc2sc(-c3ccc(C(F)(F)F)c(F)c3)nc2C)ccc1OCC(=O)O [GW0742] (first compound 0.2 µM, partner dose 10 µM)",68%,84%,71.9%,65.5%,92%,81.2%,83.6%,55.1%,56.4%,79%,44.4%,62.5%,76.4%,65.9%,83.6%,84.9%,51.8%,43.7%,49.6%

# — the supplement of paper PMC4604168 (melanoma cell lines)
